Results: PubChem BioAssay AID686970 (National Center for Advancing Translational Sciences (NCATS), 2013)
About 6,000 (1.7%) of roughly 360,000 compounds were called active. Inconclusive results, whose numbers are uncertain, are shown with a selection of clear calls. Calls follow the shape of the dose curve; as a rule, active = well fitted cell-killing curve with a large enough effect; inconclusive = small, poorly fitted or top-dose-only effect, or effect the other way; inactive = flat fitted curve, though single readings scatter. Potencies of inconclusive entries are left out as doubtful fits. Some compounds were tested as several samples or in several runs, with calls that do not always agree.

assay: qHTS for induction of synthetic lethality in tumor cells producing 2HG: qHTS for the HT-1080-NT fibrosarcoma cell line; conditions: HT-1080-NT fibrosarcoma viability, CellTiter-Glo ATP luminescence, 48 h; activity, negative = less viability: at 46.1 µM (top of the series) unless noted;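 also: NT is the 2HG producing partner of a matched IDH1 knockdown line; nearly all actives have a fitted effect of over 55% in size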;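 as to activity, negative = less viability: 0% = DMSO-treated cells and -100% = media-only wells without cells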
In short: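 A 48-hour cytotoxicity screen used HT-1080-NT cells plated 2 hours before compound delivery. ATP-based CellTiter-Glo luminescence measured viability, normalized to DMSO and no-cell controls.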
Potency is read from the fitted curve at half-maximal effect; tags tell the direction and shape of the fitted curve.

Row | Structure (SMILES) | Potency | activity, negative = less viability
1 | CC1C/C(=C/c2ccccn2)C(=O)/C(=C/c2ccccn2)C1 (stereo unspecified) | active: 0.651 µM | –
2 | CN1C(=O)c2ccc(NC(=O)c3c(F)c(F)c(F)c(F)c3F)cc2C1=O | – | inconclusive: 37.4%
3 | CCOC(=O)N1CCN(C(=O)COc2ccc3c(c2)C(=O)CC(C)(C)O3)CC1 | inconclusive [rising, single point] | –
4 | COc1ccc(-c2[nH]ncc2CN2CCN(c3ccc(F)cc3)CC2)cc1 | – | inactive: -15.5%
5 | N#CC1=C(N)SC(N)=C(C#N)C1c1cccc(Oc2ccccc2)c1 | inconclusive [cytotoxic, single point] | –
6 | CC1(C(=O)Nc2ccccc2Cc2ccccc2)CCN1CCc1ccccc1 (stereo unspecified) | inconclusive [cytotoxic, single point] | –
7 | COc1cc(/C=C/C(=O)c2ccc(C)c([N+](=O)[O-])c2)cc(OC)c1O | inconclusive [cytotoxic, single point] | –
8 | COc1ccc(C(=O)C2CCCN(Cc3ccc4nonc4c3)C2)c(C)c1 (stereo unspecified) | – | inactive: -10.5%
9 | Cc1cccc(NC(=O)c2cc(-c3cc(C)c(C)cc3O)n[nH]2)c1 | inconclusive [rising, single point] | –
10 | CCC/C(O)=C1\C(=O)CC(C)(C)CC1=Nc1ccc(OC)cc1OC | inconclusive [cytotoxic, full curve] | –
11 | C=CCN(c1cccc(C(F)(F)F)c1)S(=O)(=O)c1cccc(C(=O)OCC(=O)NC(N)=O)c1 | – | inactive: -1.69%
12 | CC(=O)OCC1(C)CN(c2ccccc2)NC1=O (stereo unspecified) | inconclusive [cytotoxic, single point] | –
13 | COc1ccc(C(=O)O)cc1NC(=S)NC(=O)/C=C/c1ccc(C(C)C)cc1 | inconclusive [cytotoxic, single point] | –
14 | O=C(C1=C(O)C(=O)N(c2ncccn2)C1c1ccc(F)cc1)c1ccco1 (stereo unspecified) | inconclusive [rising, single point] | –
15 | C=CCN(c1ccccc1)S(=O)(=O)c1cccc(C(=O)NCC(c2ccccc2OC)N2CCCC2)c1 (stereo unspecified) | active: 23.1 µM | –
16 | Cc1ccc(NS(=O)(=O)c2cc3c4c(cccc4c2)C(=O)NC3=O)cc1C | active: 7.31 µM | –
17 | Cc1c(CCOC(=O)c2ccccc2)sc[n+]1CC(=O)c1ccc(Br)cc1 | inconclusive [cytotoxic, single point] | –
18 | CCOC(=O)Cc1nn(Cc2nc(-c3ccc(C)cc3)cs2)c(=O)c2ccccc12 | active: 16.4 µM | –
19 | C/C(=N\OCC(=O)Nn1c(=O)[nH]c2ccccc2c1=O)c1ccccc1 | – | inactive: -4.35%
20 | OC[C@@H]1CN(Cc2cccs2)C[C@H](n2cnc3c(NC4CCC4)ncnc32)O1 | inconclusive [rising, single point] | –
21 | CCCn1cnnc1CNC(=O)C1CCC(=O)N(CCc2cccc(F)c2)C1 (stereo unspecified) | – | inactive: 21.9%
22 | CS(=O)(=O)c1ccc(C(=O)Nc2ccccc2N2CCOCC2)c(Cl)c1 | – | inactive: 3.52%
23 | O=C(Cc1ccc(Cl)cc1)Nc1ncc([N+](=O)[O-])s1 | inconclusive [cytotoxic, single point] | –

Row | Structure (SMILES) | Potency | activity, negative = less viability
24 | Cc1nn(-c2nc3ccccc3[nH]2)c(=O)c2ccccc12 | active: 1.46 µM | –
25 | Cc1ccccc1OCC(O)Cn1c(=N)n(Cc2ccccc2)c2ccccc21 (stereo unspecified) | active: 14.6 µM | –
26 | CC(=O)Nc1cccc(NC(=O)CSc2ncc(-c3ccc(Cl)cc3)n2Cc2ccco2)c1 | inconclusive [cytotoxic, partial curve] | –
27 | Fc1ccc(CN2CCCN(C(=S)Nc3ccc(F)cc3)CC2)cc1 | – | inactive: -0.447%
28 | CCNc1oc(COc2cccc(C)c2)nc1C#N | – | inactive: -1.47%
29 | COCC(C)n1c(-c2ccc3c(c2)NC(=O)CO3)csc1=Nc1ccc(OC(F)F)cc1 (stereo unspecified) | active: 20.6 µM | –
30 | COc1cc2cc(/C=C/C(=O)c3ccco3)c(Cl)nc2cc1OC | inconclusive [cytotoxic, single point] | –
31 | Cc1cccc(N(C)S(=O)(=O)c2ccc(-c3cc(C)no3)s2)c1 | inconclusive [cytotoxic, full curve] | –
32 | CC(C)(C)c1ccc(OCCNCc2ccccc2)cc1 | inconclusive [cytotoxic, single point] | –
33 | Nc1nn(-c2ccccc2)c(N)c1N=Nc1ccccc1 | inconclusive [cytotoxic, single point] | –
34 | COc1ccc(CC(N)c2csc(NC(=O)c3ccc(F)cc3)n2)cc1 (stereo unspecified) | active: 20.6 µM | –
35 | CCOC(=O)N/N=C/c1cn(Cc2ccc(F)cc2)c2ccccc12 | inconclusive [rising, full curve, poor fit] | –
36 | CC1(C(=O)NCc2cccc(C(F)(F)F)c2)CCN1Cc1ccc(-c2ccccc2)o1 (stereo unspecified) | inconclusive [cytotoxic, single point] | –
37 | COc1ccc(C2C(C(=O)c3ccccc3)N3c4ccccc4C=CC3C2[N+](=O)[O-])cc1 (stereo unspecified) | inconclusive [cytotoxic, single point] | –
38 | O=C(Cc1ccc(Br)cc1)Nc1ccccc1Sc1ccccc1 | inconclusive [cytotoxic, single point] | –
39 | CCCCN(C(=O)c1ccccc1Cl)C(CC(C)C)c1nc2ccccc2[nH]1 (stereo unspecified) | inconclusive [cytotoxic, single point] | –
40 | COCCn1nnnc1C(C(C)C)N(Cc1ccccc1)Cc1cc2cc(OC)ccc2[nH]c1=O (stereo unspecified) | inconclusive [cytotoxic, single point] | –
41 | COc1cc(SC)ccc1C(=O)NNC(=O)c1cc(C)oc1C | active: 8.2 µM | –
42 | CCN(CC(O)Cn1c2ccccc2c2ccccc21)S(=O)(=O)c1ccc(F)cc1 (stereo unspecified) | inconclusive [cytotoxic, single point] | –
43 | CCCCCCn1c2c(c(=N)c3c1CCC3)CCC2 | active: 1.58 µM | –
44 | COc1ccc(CN(C)CC(=O)NC(=O)NCc2ccccc2)cc1OC | – | inactive: -6.3%
45 | O=[N+]([O-])c1cc2no[n+]([O-])c2cc1N1CCCCC1 | – | inactive: 11.7%
46 | Oc1ccc(C[C@H]2CNC(=S)N2CC2CCCN2C[C@H](Cc2ccc(O)cc2)N2C[C@H](Cc3ccc(O)cc3)N(CC3CCCCCC3)C2=S)cc1 (stereo partly specified) | inconclusive [cytotoxic, single point] | –
